Out of some 360,000 compounds screened, about 2,600 (0.72%) were called active. The inconclusive results got no clear call from the source; some entries with a clear call stand among them for comparison. Calls follow the shape of the dose curve; as a rule, active = well fitted inhibition curve with a large enough effect; inconclusive = small, poorly fitted or top-dose-only effect; inactive = no such curve, though single readings can be large or run the other way. A potency beside an inconclusive call is a rough fit, not a confirmed value.
Assay: Primary qHTS for Inhibitors of ATXN expression; also: nearly all actives have a fitted effect of over 55% in size
Conditions: HEK-293 ATXN2-luciferase reporter, luminescence, 24 h; activity change, negative = inhibition: at 57 µM (top of the series)
Summary of the method: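 qHTS (up to 57 uM final) was run with 24 h compound exposure of reporter cells at 37 °C. Each well was multiplexed: SteadyGlo luminescence measured ATXN2-luciferase expression after a fluorogenic Gly-Phe-AFC viability readout (25 uM final).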
% is scaled to controls: 0 for no effect and ±100 for the full control effect; potency is read from the fitted curve at half-maximal effect; tags tell the direction and shape of the fitted curve.

SMILES	activity change, negative = inhibition	Potency
Cc1cc(F)cc(-c2cc(C(=O)NCc3ccco3)[nH]n2)c1	inactive: 23.1%	–
COc1ccc(C(=O)CN2CCN(c3cc(C)nc4ccccc34)CC2)cc1	inactive: -31.2%	–
Cc1cccc(NC(=O)Cn2nc(-c3ccccc3)c3cnc4ccccc4c32)c1	inactive: -0.0997%	–
CCCOCc1ccc(O)c2ncccc12	–	inconclusive: 35.5 µM [inhibitor, single point]
Cc1ccc(-c2ccc(CN3C(C)C(=O)N(Cc4cn(Cc5ccco5)nn4)CCS3(=O)=O)cc2)c(C)c1 (configuration not stated)	–	inconclusive: 17.8 µM [inhibitor, partial curve]
CC(C)OC(=O)C(C)(C)Oc1ccc(C(=O)c2ccc(Cl)cc2)cc1	–	inconclusive: 24.3 µM [inhibitor, partial curve]
N#Cc1c(Nc2ccccc2)[n+]([O-])c2ccc(Cl)cc2[n+]1[O-]	–	inconclusive: 31.6 µM [inhibitor, partial curve, poor fit]
COc1cc(/C=C(/C#N)C(=O)NCCc2c[nH]c3ccccc23)ccc1OCc1ccccc1F	–	active: 7.08 µM
CCCN1CCN(c2ncnc3sc(C(=O)Nc4ccc(C(C)C)cc4)c(C)c23)CC1	–	inconclusive: 28.2 µM [inhibitor, single point]
COc1cccc(-c2sc3ccc(OC)cc3c2-c2ccc(OCCN(C)C)cc2)c1	–	inconclusive: 31.6 µM [inhibitor, single point]
CCCNC(=O)c1ccc(N2CCC3(CC2)CC(c2ccccc2)=NO3)c(NC(=O)c2cccc(C)c2)c1	–	inconclusive: 3.16 µM [inhibitor, partial curve, poor fit]
Cc1nn(-c2c(Cl)cc(Cl)cc2Cl)c(=O)c2ccccc12	–	inconclusive: 20 µM [inhibitor, partial curve, poor fit]
COc1ccc(NC(=O)CN2C(=O)CCn3nc(-c4cccn4C)cc32)cc1Cl	inactive: -2.49%	–
COc1cc(C(=O)OCC(=O)NCCCc2ccccc2)ccc1OCC(C)C	inactive: 3.97%	–
Cc1cc(C)n(-c2nc(Nc3ccccc3C(F)(F)F)nc(-n3nc(C)cc3C)n2)n1	–	active: 22.4 µM
Cc1cc(O)c(C(C)C)cc1NC(=S)Nc1cc(C(C)C)c(O)cc1C	–	inconclusive: 16.8 µM [inhibitor, partial curve, poor fit]
Cc1ccc(NC(=S)N(CCC(C)C)C(C)c2ccncc2)c(Cl)c1 (configuration not stated)	–	inconclusive: 25.1 µM [inhibitor, partial curve, poor fit]
O=C1c2ccccc2NC(c2ccc(Cl)cc2Cl)N1Cc1ccccc1 (configuration not stated)	–	inconclusive: 39.8 µM [inhibitor, partial curve, poor fit]
COc1ccc(OCCN2CCCC2)cc1Nc1nnc(Cl)c(Nc2ccccc2S(C)(=O)=O)n1	–	inconclusive: 31.6 µM [inhibitor, partial curve, poor fit]
CC(C)c1ccccc1NC(=O)Nc1nc(C(N)Cc2ccc(C(F)(F)F)cc2)cs1 (configuration not stated)	–	inconclusive: 35.5 µM [inhibitor, single point]
Cc1ncc(CO)c2c1Oc1nc(-c3ccccc3F)nc(SCC(=O)N(C)c3ccccc3)c1C2	–	inconclusive: 39.8 µM [inhibitor, single point]

SMILES	activity change, negative = inhibition	Potency
CCOC(=O)C1(CCOc2ccccc2)CCN(Cc2ccc(C(=O)OC)cc2)CC1	inconclusive: -47.1% [inhibitor]	–
COc1cccc(-c2sc3ccccc3c2-c2ccc(OCCN3CCCC3)cc2)c1	–	active: 28.2 µM
COc1ccc(Nc2ccc3c(c2)=NC2(CCCCC2)[N+]=3[O-])cc1	–	inconclusive: 31.6 µM [inhibitor, single point]
O=C(NCCCN1CCN(c2ccccc2F)CC1)C1CCC(=O)N1C1CCCC1 (configuration not stated)	inactive: -1.39%	–
N#C/C(=C/c1ccccc1[N+](=O)[O-])c1nc(C2CC2)cs1	–	inconclusive: 6.31 µM [inhibitor, single point]
O=C(NN=Cc1c(O)ccc2ccccc12)c1ccncc1	–	inconclusive: 0.752 µM [inhibitor, full curve, poor fit]
CN(C)CCO/N=C(\c1ccc(Br)cc1)c1cccnc1	inactive: -5.38%	–
O=C(O)c1cccc(-n2c(/C=C/c3ccccc3)nc3ccccc3c2=O)c1	inactive: 1.32%	–
COc1ccc(C2CC(c3cccc(Br)c3)=NN2c2ccc(S(N)(=O)=O)cc2)cc1 (configuration not stated)	–	inconclusive: 39.8 µM [inhibitor, single point]
CCOc1ccccc1N=C1SCC(C)N1C(=O)C1CCN(c2ncnc3sc(C)c(C)c23)CC1 (configuration not stated)	inactive: -17.8%	–
O=C(Nc1ccc(-c2csc(Nc3ccccc3)n2)cc1)c1cccc(C(F)(F)F)c1	–	inconclusive: 14.1 µM [inhibitor, partial curve]
O=C(N/N=C/c1cccnc1)c1cccc(Br)c1	inactive: -1.99%	–
CCOc1ccc(NC(=O)C2CCC(CNc3c(N4CCCCC4)c(=O)c3=O)CC2)cc1 (configuration not stated)	–	inconclusive: 11.2 µM [inhibitor, partial curve, poor fit]
Oc1[nH]c2ccc(Br)cc2c1N=NC(=S)N1CCOCC1	–	active: 0.708 µM
S=C(NCc1ccc(Cl)cc1)NC12CC3CC(CC(C3)C1)C2	–	inconclusive: 28.2 µM [inhibitor, single point]
COc1ccc(CN2CCC3CC2c2cc(-c4cccc(C)c4)ccc23)cc1 (configuration not stated)	–	inconclusive: 20 µM [inhibitor, partial curve, poor fit]
CC(C)(C)c1ccc(C(O)c2ncc(-c3ccc(F)cc3)[nH]2)cc1 (configuration not stated)	–	inconclusive: 17.8 µM [inhibitor, single point]
Cn1cc(C(=O)c2ccc(Cl)cc2Cl)cc1C(=O)N/N=C(\N)COc1cccc(C(F)(F)F)c1	–	inconclusive: 31.6 µM [inhibitor, single point]
CCc1cccc(NC(=O)CCc2nc3sc4c(c3c(=O)[nH]2)CCCC4)c1	–	inconclusive: 25.1 µM [inhibitor, partial curve, poor fit]
Cc1ccc(-c2ccc(/C=N\NC(=O)C3C(=O)NCC3c3ccccc3)o2)cc1Cl (configuration not stated)	–	inconclusive: 39.8 µM [inhibitor, single point]
CCCCCn1c(NCc2ccc(OC)cc2)nc2ccccc21	–	inconclusive: 25.1 µM [inhibitor, single point]

Reference: PubChem BioAssay AID1745845 (National Center for Advancing Translational Sciences (NCATS), 2022)
